# Laboratory results from patent EP4775675A1 (Shanghai Hongcheng Biopharmaceutical Co., Ltd., dated 2026).
# T1: human BDCA-2 on cells (Jurkat-hBDCA-2 cells; human pDCs; human PBMCs) (human, UniProt Q8WTT0 1-213)
# T1 construct: whole, on cells; also called CD303; CLEC4C
# T1 sequence (looked up): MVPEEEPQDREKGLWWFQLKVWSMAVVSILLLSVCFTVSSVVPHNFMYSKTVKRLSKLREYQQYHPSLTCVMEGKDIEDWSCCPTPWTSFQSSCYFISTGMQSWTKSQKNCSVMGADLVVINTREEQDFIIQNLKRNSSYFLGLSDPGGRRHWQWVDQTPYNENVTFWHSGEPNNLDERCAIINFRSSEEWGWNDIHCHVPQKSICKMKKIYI
# T2: cynomolgus monkey BDCA-2 on cells (Jurkat-cynoBDCA-2 cells; cynomolgus monkey pDCs) (cynomolgus monkey, UniProt A0A2K5UWP4 1-212)
# T2 construct: whole, on cells
# T2 sequence: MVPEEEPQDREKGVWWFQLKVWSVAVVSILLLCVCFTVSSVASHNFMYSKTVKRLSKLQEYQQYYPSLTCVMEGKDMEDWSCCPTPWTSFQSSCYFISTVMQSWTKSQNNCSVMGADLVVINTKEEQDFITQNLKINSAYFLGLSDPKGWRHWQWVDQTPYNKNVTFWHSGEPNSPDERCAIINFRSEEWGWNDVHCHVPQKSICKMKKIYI
# T3: Human BDCA-2 protein (soluble, Octet analyte) (human, UniProt Q8WTT0 45-213, limits assumed)
# T3 construct: Soluble protein used as analyte in BLI
# T3 sequence (looked up): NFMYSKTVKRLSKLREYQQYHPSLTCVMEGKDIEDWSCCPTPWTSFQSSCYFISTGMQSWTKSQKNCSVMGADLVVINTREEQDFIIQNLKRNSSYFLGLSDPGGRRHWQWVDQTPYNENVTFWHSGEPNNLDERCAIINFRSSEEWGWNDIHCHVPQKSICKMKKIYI
# T4: cynomolgus monkey BDCA-2 protein (acro, CLC-C52H4) (cynomolgus monkey, UniProt A0A2K5UWP4 45-212)
# T4 construct: Bought soluble protein; also called cyno BDCA-2
# T4 sequence: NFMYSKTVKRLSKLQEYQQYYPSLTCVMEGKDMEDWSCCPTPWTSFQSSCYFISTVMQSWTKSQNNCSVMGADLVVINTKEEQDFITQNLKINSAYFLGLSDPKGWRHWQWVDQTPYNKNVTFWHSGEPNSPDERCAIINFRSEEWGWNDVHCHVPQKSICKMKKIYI
# How the values were obtained:
# [1] = target: T1, human BDCA-2 on cells (Jurkat-hBDCA-2 …); assay: flow cytometry on Jurkat-hBDCA-2 cells
# [2] = target: T2, cynomolgus monkey BDCA-2 on cells …; assay: flow cytometry on Jurkat-cynoBDCA-2 cells
# [3] = target: T1, human BDCA-2 on cells (Jurkat-hBDCA-2 …); assay: cell-based or functional assay
# [4] = target: T3, Human BDCA-2 protein (soluble, Octet …); assay: BLI (Octet Red96e), antibody on anti-human IgG sensor, human BDCA-2 protein in solution
# [5] = target: T4, cynomolgus monkey BDCA-2 protein (acro, …); assay: BLI (Octet Red96e), antibody on anti-human IgG sensor, cynomolgus monkey BDCA-2 protein in solution
# [6] = target: T1, human BDCA-2 on cells (Jurkat-hBDCA-2 …); assay: cell-based or functional assay; remark: listed apart in the source
Binder,EC50 [1],EC50 [2],further results
"17G6A2_hzH1L6_hIgG1 (antibody, Humanized, human IgG1/kappa (hzVH01 + hzVL06)) heavy: EVQLVESGGGLVKPGGSLRLSCAASGFTFSSYGMSWVRQAPGKGLEWVSTISSGDSYTYYPDSVKGRFTISRDNAKNSLYLQMNSLRAEDTAVYYCARQLYYSYGYYFDYWGQGTTVTVSS[sequence of human IgG1 constant region omitted] light: DIVLTQSPASLAVSPGQRATITCRASESVSFHGTHLMHWYQQKPGQPPKLLIYAASNLESGVPARFSGSGSGTDFTLTINPVEANDAANYYCQQSIEDPPTFGGGTKVEIKRTVAAPSVFIFPPSDEQLKSGTASVVCLLNNFYPREAKVQWKVDNALQSGNSQESVTEQDSKDSTYSLSSTLTLSKADYEKHKVYACEVTHQGLSSPVTKSFNRGEC",0.0553 µg/mL,0.0997 µg/mL,"EC50, inhibition of immune complex-induced type I interferon (IFNα) production by human pDC cells [3]: 0.7 ng/mL; Kd [4]: 5.9 nM; koff [4]: 0.000705 s⁻¹; kon [4]: 120000 M⁻¹ s⁻¹; Kd [5]: 5.6 nM; koff [5]: 0.00065 s⁻¹; kon [5]: 110000 M⁻¹ s⁻¹; EC50, inhibition of CpGA-induced type I interferon (IFNα) production in human PBMC cells [6]: 0.0014 µg/mL"
164C11B8_hzH2L2_hIgG1 (antibody) heavy: EVQLLESGGGLVQPGGSLRLSCAASGFTFSTYTMSWVRQAPGKGLEWVATINSGGDNTYYPDSVKGRFTISRDNSKNTLYLQMNSLRAEDTAVYYCATYRPYYYGSVLDYWGQGTTVTVSS[sequence of human IgG1 constant region omitted] light: DIVMTQSPDSLAVSLGERATINCKASQSVDYDGNSYVNWYQQKPGQPPKLLIYGASNLESGIPDRFSGSGSGTDFTLTISSLQAEDVAVYYCQQSDEDPWTFGGGTKVEIKRTVAAPSVFIFPPSDEQLKSGTASVVCLLNNFYPREAKVQWKVDNALQSGNSQESVTEQDSKDSTYSLSSTLTLSKADYEKHKVYACEVTHQGLSSPVTKSFNRGEC,0.106 µg/mL,0.256 µg/mL,–
164C11B8_hzH1L2_hIgG1 (antibody) heavy: EVQLLESGGGLVQPGGSLRLSCAASGFTFSTYTMSWVRQAPGKGLEWVSTINSGGDNTYYPDSVKGRFTISRDNSKNTLYLQMNSLRAEDTAVYYCATYRPYYYGSVLDYWGQGTTVTVSS[sequence of human IgG1 constant region omitted] light: DIVMTQSPDSLAVSLGERATINCKASQSVDYDGNSYVNWYQQKPGQPPKLLIYGASNLESGIPDRFSGSGSGTDFTLTISSLQAEDVAVYYCQQSDEDPWTFGGGTKVEIKRTVAAPSVFIFPPSDEQLKSGTASVVCLLNNFYPREAKVQWKVDNALQSGNSQESVTEQDSKDSTYSLSSTLTLSKADYEKHKVYACEVTHQGLSSPVTKSFNRGEC,0.0775 µg/mL,0.144 µg/mL,–
164C11B8_hzH1L3_hIgG1 (antibody) heavy: EVQLLESGGGLVQPGGSLRLSCAASGFTFSTYTMSWVRQAPGKGLEWVSTINSGGDNTYYPDSVKGRFTISRDNSKNTLYLQMNSLRAEDTAVYYCATYRPYYYGSVLDYWGQGTTVTVSS[sequence of human IgG1 constant region omitted] light: DIVLTQSPDSLAVSLGERATINCKASQSVDYDGNSYVNWYQQKPGQPPKLLIYGASNLESGIPDRFSGSGSGTDFTLTISSLQAEDVAVYYCQQSDEDPWTFGGGTKVEIKRTVAAPSVFIFPPSDEQLKSGTASVVCLLNNFYPREAKVQWKVDNALQSGNSQESVTEQDSKDSTYSLSSTLTLSKADYEKHKVYACEVTHQGLSSPVTKSFNRGEC,0.113 µg/mL,0.193 µg/mL,–

# More lines, main results first:
EC50 [1],EC50 [2],Binder,further results
0.11 µg/mL,0.16 µg/mL,164C11B8_hzH4L3_hIgG1 (antibody) heavy: EVQLLESGGGLVQPGGSLRLSCAASGITFSTYTMSWVRQAPGKRLEWVATINSGGDNTYYPDSVKGRFTISRDNSKNTLYLQMNSLRAEDTAVYYCATYRPYYYGSVLDYWGQGTTVTVSS[sequence of human IgG1 constant region omitted] light: DIVLTQSPDSLAVSLGERATINCKASQSVDYDGNSYVNWYQQKPGQPPKLLIYGASNLESGIPDRFSGSGSGTDFTLTISSLQAEDVAVYYCQQSDEDPWTFGGGTKVEIKRTVAAPSVFIFPPSDEQLKSGTASVVCLLNNFYPREAKVQWKVDNALQSGNSQESVTEQDSKDSTYSLSSTLTLSKADYEKHKVYACEVTHQGLSSPVTKSFNRGEC,–
0.073 µg/mL,0.0837 µg/mL,164C11B8_hzH3L3_hIgG1 (antibody) heavy: EVQLLESGGGLVQPGGSLRLSCAASGITFSTYTMSWVRQAPGKGLEWVATINSGGDNTYYPDSVKGRFTISRDNSKNTLYLQMNSLRAEDTAVYYCATYRPYYYGSVLDYWGQGTTVTVSS[sequence of human IgG1 constant region omitted] light: DIVLTQSPDSLAVSLGERATINCKASQSVDYDGNSYVNWYQQKPGQPPKLLIYGASNLESGIPDRFSGSGSGTDFTLTISSLQAEDVAVYYCQQSDEDPWTFGGGTKVEIKRTVAAPSVFIFPPSDEQLKSGTASVVCLLNNFYPREAKVQWKVDNALQSGNSQESVTEQDSKDSTYSLSSTLTLSKADYEKHKVYACEVTHQGLSSPVTKSFNRGEC,–
0.0611 µg/mL,0.104 µg/mL,164C11B8_hzH4L2_hIgG1 (antibody) heavy: EVQLLESGGGLVQPGGSLRLSCAASGITFSTYTMSWVRQAPGKRLEWVATINSGGDNTYYPDSVKGRFTISRDNSKNTLYLQMNSLRAEDTAVYYCATYRPYYYGSVLDYWGQGTTVTVSS[sequence of human IgG1 constant region omitted] light: DIVMTQSPDSLAVSLGERATINCKASQSVDYDGNSYVNWYQQKPGQPPKLLIYGASNLESGIPDRFSGSGSGTDFTLTISSLQAEDVAVYYCQQSDEDPWTFGGGTKVEIKRTVAAPSVFIFPPSDEQLKSGTASVVCLLNNFYPREAKVQWKVDNALQSGNSQESVTEQDSKDSTYSLSSTLTLSKADYEKHKVYACEVTHQGLSSPVTKSFNRGEC,–
0.112 µg/mL,0.154 µg/mL,164C11B8_hzH3L2_hIgG1 (antibody) heavy: EVQLLESGGGLVQPGGSLRLSCAASGITFSTYTMSWVRQAPGKGLEWVATINSGGDNTYYPDSVKGRFTISRDNSKNTLYLQMNSLRAEDTAVYYCATYRPYYYGSVLDYWGQGTTVTVSS[sequence of human IgG1 constant region omitted] light: DIVMTQSPDSLAVSLGERATINCKASQSVDYDGNSYVNWYQQKPGQPPKLLIYGASNLESGIPDRFSGSGSGTDFTLTISSLQAEDVAVYYCQQSDEDPWTFGGGTKVEIKRTVAAPSVFIFPPSDEQLKSGTASVVCLLNNFYPREAKVQWKVDNALQSGNSQESVTEQDSKDSTYSLSSTLTLSKADYEKHKVYACEVTHQGLSSPVTKSFNRGEC,–
0.0703 µg/mL,0.115 µg/mL,164C11B8_hzH2L3_hIgG1 (antibody) heavy: EVQLLESGGGLVQPGGSLRLSCAASGFTFSTYTMSWVRQAPGKGLEWVATINSGGDNTYYPDSVKGRFTISRDNSKNTLYLQMNSLRAEDTAVYYCATYRPYYYGSVLDYWGQGTTVTVSS[sequence of human IgG1 constant region omitted] light: DIVLTQSPDSLAVSLGERATINCKASQSVDYDGNSYVNWYQQKPGQPPKLLIYGASNLESGIPDRFSGSGSGTDFTLTISSLQAEDVAVYYCQQSDEDPWTFGGGTKVEIKRTVAAPSVFIFPPSDEQLKSGTASVVCLLNNFYPREAKVQWKVDNALQSGNSQESVTEQDSKDSTYSLSSTLTLSKADYEKHKVYACEVTHQGLSSPVTKSFNRGEC,–
